Experimental data reported in patent EP4450093A1 (Synaffix B.V., dated 2024).
Where two headings read alike, the source gives them in different places.

B1: mPD-L1-v1a-218-NHO1-PF51 (2:2) (other)
light: QSALTQPASVSGSPGQSITISCTGTSSDVGAYNYVSWYQQHPGKAPKLMIYDVSNRPSGVSNRFSGSKSGNTASLTISGLQAEDEADYYCSSYTSSSTRVFGTGTKVTVLGQPKANPTVTLFPPSSEELQANKATLVCLISDFYPGAVTVAWKADGSPVKAGVETTKPSKQSNNKYAASSYLSLTPEQWKSHRSYSCQVTHEGSTVEKTVAPTEC
heavy: EVQLLESGGGLVQPGGSLRLSCAASGFTFSAYRMFWVRQAPGKGLEWVSSIYPSGGITFYADSVKGRFTISRDNSKNTLYLQMNSLRAEDTAIYYCARIKLGTVTTVDYWGQGTLVTVSSASTKGPSVFPLAPSSKSTSGGTAALGCLVKDYFPEPVTVSWNSGALTSGVHTFPAVLQSSGLYSLSSVVTVPSSSLGTQTYICNVNHKPSNTKVDKRV[human IgG1 Fc cut from this listing]
chain: MSYRGGGGSGGGGSRASRANGS[about 120 residues cut from this listing]
modifications: N-terminal serine oxidised with NaIO4 and converted to a nitrone (NHO1), joined by SPANC to BCN-PEG2-BCN linker 218; Fc N-glycan trimmed to core GlcNAc(Fuc) and extended with 6-N3-GalNAc; azide clicked to BCN linker 218 that carries the cytokine
B2: mPD-L1-v1a-218-NHO2-PF54 (2:2) (other)
light: B1 light
heavy: B1 heavy
chain: STGGGGSGGGGSGGGGSGGS[about 120 residues cut from this listing]
modifications: N-terminal serine oxidised with NaIO4 and converted to a nitrone (NHO2), joined by SPANC to BCN-PEG2-BCN linker 218; Fc N-glycan trimmed to core GlcNAc(Fuc) and extended with 6-N3-GalNAc; azide clicked to BCN linker 218 that carries the cytokine
B3: mPD-L1-v1a-218-NHO2-PF52 (2:2) (other)
light: B1 light
heavy: B1 heavy
chain: STGGGGSGGGGSRASRANGS[about 120 residues cut from this listing]
modifications: N-terminal serine oxidised with NaIO4 and converted to a nitrone (NHO2), joined by SPANC to BCN-PEG2-BCN linker 218; Fc N-glycan trimmed to core GlcNAc(Fuc) and extended with 6-N3-GalNAc; azide clicked to BCN linker 218 that carries the cytokine
B4: mPD-L1-v1a-218-NHO2-PF56 (2:2) (other)
light: B1 light
heavy: B1 heavy
chain: MSTGGGGSGGGGSRASRANGS[about 120 residues cut from this listing]
modifications: N-terminal serine oxidised with NaIO4 and converted to a nitrone (NHO2), joined by SPANC to BCN-PEG2-BCN linker 218; Fc N-glycan trimmed to core GlcNAc(Fuc) and extended with 6-N3-GalNAc; azide clicked to BCN linker 218 that carries the cytokine
B5: mPD-L1-v1a-145-NHO2-PF52 (2:1) (other)
light: B1 light
heavy: B1 heavy
chain: STGGGGSGGGGSRASRANGS[about 120 residues cut from this listing]
modifications: N-terminal serine oxidised with NaIO4 and converted to a nitrone (NHO2), joined by SPANC to the free BCN of linker 145; Fc N-glycan trimmed and extended with 6-N3-GalNAc; both azides cross-linked intramolecularly by trivalent BCN linker 145
B6: genetic fusion IC1 (other)
light: B1 light
heavy: EVQLLESGGGLVQPGGSLRLSCAASGFTFSAYRMFWVRQAPGKGLEWVSSIYPSGGITFYADSVKGRFTISRDNSKNTLYLQMNSLRAEDTAIYYCARIKLGTVTTVDYWGQGTLVTVSSASTKGPSVFPLAPSSKSTSGGTAALGCLVKDYFPEPVTVSWNSGALTSGVHTFPAVLQSSGLYSLSSVVTVPSSSLGTQTYICNVNHKPSNTKVDKRV[human IgG1 Fc with changes cut from this listing]SCPPPMSVEHADIWVKSYSLYSRERYICNSGFKRKAGTSSLTECVLNKATNVAHWTTPSLKCIRDPALVHQRPAPPSGGSGGGGSGGGSGGGGSLQ[about 120 residues cut from this listing]

Columns and labels:
[1] = molecular target: T1, IL-15 receptor on the IL-15 cells of the IL-15 bioassay (Promega, cat.# JA2015) (mouse cell line); assay: cell-based or functional assay
[2] = molecular target: T1, IL-15 receptor on the IL-15 cells of …; assay: cell-based or functional assay; remark: listed apart in the source

| Binder | EC50 (pM), IL-15 bioassay (STAT-5 reporter luminescence) [1] [pM] | Fold induction, IL-15 bioassay [1] [fold] | EC50, IL-15 bioassay (STAT-5 reporter luminescence) [2] [nM] | Fold induction, IL-15 bioassay [2] [fold] |
| --- | --- | --- | --- | --- |
| B1 | 14.9 | 2.5 |  |  |
| B2 | 5.9 | 1.6 |  |  |
| B3 | 8.1 | 2.1 | 0.0114 | 1.5 |
| B4 |  |  |  | 1.5 |
| B5 | 12.3 | 1.6 |  |  |
| B6 |  | 1 |  |  |
